Measured values from patent US20220363757A1.

B1: antibody 15646 (antibody, human IgG1, kappa)
heavy: QVQLQQWGAGLLKPSETLSLTCAVYGGSFSGYYWSWIRQPPGKGLEWIGEINHRGSTNYNPSLKSRVTISVDTSKNQFSLKLSSVTAADTAVYYCTRGEEWESLFFDYWGQGTLVTVSSASTKGPSVFPLAPSSKSTSGGTAALGCLVKDYFPEPVTVSWNSGALTSGVHTFPAVLQSSGLYSLSSVVTVPSSSLGTQTYICNVNHKPSNTKVDKRV[human IgG1 Fc with changes not shown]
light: EIVLTQSPATLSLSPGERATLSCRASQSISSYLAWYQQKPGQAPRLLIYGASNRATGIPARFSGSGSGTDFTLTISSLEPEDFAVYYCQQRSNWPLTFGGGTRVEIKRTVAAPSVFIFPPSDEQLKSGTASVVCLLNNFYPREAKVQWKVDNALQSGNSQESVTEQDSKDSTYSLSSTLTLSKADYEKHKVYACEVTHQGLSSPVTKSFNRGEC
B2: antibody 15595 (antibody)
heavy: QVQLVQSGAEVKKPGASVKVSCKVSGYSLTEISMHWVRQAPGKGLEWMGGFDPEDGETIYAQRFQGRVIMTEDTSTDTAYMELSSLRSEDTAVYYCATGGWGPNWFDPWGQGTLVTVSSASTKGPSVFPLAPSSKSTSGGTAALGCLVKDYFPEPVTVSWNSGALTSGVHTFPAVLQSSGLYSLSSVVTVPSSSLGTQTYICNVNHKPSNTKVDKRV[human IgG1 Fc with changes not shown]
light: DIQMTQSPSSVSASVGDRVTITCRASQGISSWLAWYQQKPGKAPKLLIYAASSLQSGVPSRFSGSGSGTDFTLTISSLQPEDFATYYCQQANSFPFTFGPGTKVDIKRTVAAPSVFIFPPSDEQLKSGTASVVCLLNNFYPREAKVQWKVDNALQSGNSQESVTEQDSKDSTYSLSSTLTLSKADYEKHKVYACEVTHQGLSSPVTKSFNRGEC

Biological target: cynomolgus LAG-3 on transiently transfected CHO-S cells (cynomolgus)
Assay: flow cytometry on transfected CHO-S cells

Binder | EC50 [pM]
B1 | 110
B2 | 30
